In the supplement of paper PMC4604168 (melanoma cell lines):
The list shows a part of the results. Most values come without repeats; read them as rough.

How the values were obtained:
Assay in all cases: cell count relative to DMSO control; melanoma cells; higher = more viable cells
Settings in all cases: library dose: low library concentration; 72 h
MZ2-MEL = test system: MZ2-MEL
MeWo = test system: MeWo
RPMI7951 = test system: RPMI7951
RVH-421 = test system: RVH-421
SkMel28 = test system: SkMel28
SkMel2 = test system: SkMel2
SkMel30 = test system: SkMel30
UACC62 = test system: UACC62
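Note: cell number obtained by counting DAPI-stained nuclei in high-throughput microscope images with image analysis software, screen run in 1,536-well plates.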

Row | Structure (SMILES) | cell count (MZ2-MEL) [%] | cell count (MeWo) [%] | cell count (RPMI7951) [%] | cell count (RVH-421) [%] | cell count (SkMel28) [%] | cell count (SkMel2) [%] | cell count (SkMel30) [%] | cell count (UACC62) [%]
1 | Cc1cn(-c2cc(NC(=O)c3ccc(C)c(Nc4nccc(-c5cccnc5)n4)c3)cc(C(F)(F)F)c2)cn1 [nilotinib] + Nc1ncn([C@H]2C[C@H](O)[C@@H](CO)O2)c(=O)n1 [decitabine] (first compound 0.2 µM, partner dose 0.1 µM) | 84.7 | 101 | 91.9 | 78 | 85.3 | 93.5 | 113 | 78.4
2 | COc1ccc(C2=N[C@@H](c3ccc(Cl)cc3)[C@@H](c3ccc(Cl)cc3)N2C(=O)N2CCNC(=O)C2)c(OC(C)C)c1 [Nutlin-3] + Cc1nc(Nc2ncc(C(=O)Nc3c(C)cccc3Cl)s2)cc(N2CCN(CCO)CC2)n1 [dasatanib] (first compound 0.1 µM, partner dose 0.004 µM) | 80.6 | 88.9 | 73.5 | 66.8 | 80.8 | 107 | 93.4 | 74.1
3 | Cc1cn(-c2cc(NC(=O)c3ccc(C)c(Nc4nccc(-c5cccnc5)n4)c3)cc(C(F)(F)F)c2)cn1 [nilotinib] + C#Cc1cccc(Nc2ncnc3cc(OCCOC)c(OCCOC)cc23)c1 [erlotinib] (first compound 0.2 µM, partner dose 0.8 µM) | 87.8 | 93.1 | 61 | 93.8 | 109 | 97.8 | 86 | 84
4 | Cc1cc(Nc2cc(N3CCN(C)CC3)nc(/C=C/c3ccccc3)n2)n[nH]1 + Cn1nnc2c(C(N)=O)ncn2c1=O [temozolomide] (first compound 0.04 µM, partner dose 2 µM) | 97.1 | 85.7 | 98.5 | 87.7 | 73.8 | 102 | 88.3 | 85
5 | Cn1c(=O)n(-c2ccc(C(C)(C)C#N)cc2)c2c3cc(-c4cnc5ccccc5c4)ccc3ncc21 + C=CCNC1=C2C[C@@H](C)C[C@H](OC)[C@H](O)[C@@H](C)/C=C(\C)[C@H](OC(N)=O)[C@@H](OC)/C=C\C=C(/C)C(=O)NC(=CC1=O)C2=O [Tanespimycin] (first compound 0.004 µM, partner dose 0.002 µM) | 98.3 | 76.8 | 90.6 | 97.5 | 81.4 | 99 | 85.3 | 85.2
6 | Cc1cc(Nc2cc(N3CCN(C)CC3)nc(/C=C/c3ccccc3)n2)n[nH]1 + CC(C)C[C@H](NC(=O)[C@H](Cc1ccccc1)NC(=O)c1cnccn1)B(O)O [Bortezomib] (first compound 0.04 µM, partner dose 0.001 µM) | 93.6 | 92.9 | 86 | 77.6 | 92.8 | 90.9 | 111 | 104
7 | Cn1c(=O)n(-c2ccc(C(C)(C)C#N)cc2)c2c3cc(-c4cnc5ccccc5c4)ccc3ncc21 + CS(=O)(=O)CCNCc1ccc(-c2ccc3ncnc(Nc4ccc(OCc5cccc(F)c5)c(Cl)c4)c3c2)o1 [lapatinib] (first compound 0.004 µM, partner dose 0.8 µM) | 103 | 85.6 | 92 | 83 | 104 | 84.4 | 76.4 | 82.8
8 | COc1ccc(C2=N[C@@H](c3ccc(Cl)cc3)[C@@H](c3ccc(Cl)cc3)N2C(=O)N2CCNC(=O)C2)c(OC(C)C)c1 [Nutlin-3] + C[C@@H](Oc1cc(-c2cnn(C3CCNCC3)c2)cnc1N)c1c(Cl)ccc(F)c1Cl [Crizotinib] (first compound 0.1 µM, partner dose 0.2 µM) | 93.6 | 95 | 98.9 | 94.8 | 80 | 114 | 112 | 68.3
9 | COc1ccc(C2=N[C@@H](c3ccc(Cl)cc3)[C@@H](c3ccc(Cl)cc3)N2C(=O)N2CCNC(=O)C2)c(OC(C)C)c1 [Nutlin-3] + C=C(c1ccc(C(=O)O)cc1)c1cc2c(cc1C)C(C)(C)CCC2(C)C [Bexarotene] (first compound 0.1 µM, partner dose 2 µM) | 95.5 | 86.2 | 88.2 | 94.8 | 49.6 | 86.6 | 104 | 70.8
10 | CC(C)C[C@H](NC(=O)[C@H](Cc1ccccc1)NC(=O)c1cnccn1)B(O)O [Bortezomib] + C#Cc1cccc(Nc2ncnc3cc(OCCOC)c(OCCOC)cc23)c1 [erlotinib] (first compound 0.001 µM, partner dose 0.8 µM) | 72.4 | 84.7 | 85.5 | 60.9 | 98.6 | 90.5 | 82.2 | 57.3
11 | Cc1cn(-c2cc(NC(=O)c3ccc(C)c(Nc4nccc(-c5cccnc5)n4)c3)cc(C(F)(F)F)c2)cn1 [nilotinib] + C[C@@H](Oc1cc(-c2cnn(C3CCNCC3)c2)cnc1N)c1c(Cl)ccc(F)c1Cl [Crizotinib] (first compound 0.2 µM, partner dose 0.2 µM) | 93.5 | 111 | 118 | 106 | 92 | 0.456 | 111 | 108
12 | CC(C)C[C@H](NC(=O)[C@H](Cc1ccccc1)NC(=O)c1cnccn1)B(O)O [Bortezomib] + CNC(=O)c1cc(Oc2ccc(NC(=O)Nc3ccc(Cl)c(C(F)(F)F)c3)cc2)ccn1 [sorafenib] (first compound 0.001 µM, partner dose 0.4 µM) | 47.6 | 73.1 | 57.4 | 49.1 | 90.6 | 98.1 | 83 | 55.5
13 | Cc1cc(Nc2cc(N3CCN(C)CC3)nc(/C=C/c3ccccc3)n2)n[nH]1 + OCc1c[nH]c2ccccc12 [Indole-3-carbinol] (first compound 0.04 µM, partner dose 0.8 µM) | 87.4 | 91.1 | 99.2 | 87 | 103 | 100 | 88.1 | 103
14 | Cc1cc(Nc2cc(N3CCN(C)CC3)nc(/C=C/c3ccccc3)n2)n[nH]1 + C[C@@H](Oc1cc(-c2cnn(C3CCNCC3)c2)cnc1N)c1c(Cl)ccc(F)c1Cl [Crizotinib] (first compound 0.04 µM, partner dose 0.2 µM) | 99.1 | 87 | 84.4 | 90 | 86.1 | 94.2 | 108 | 88.3
15 | CC(C)C[C@H](NC(=O)[C@H](Cc1ccccc1)NC(=O)c1cnccn1)B(O)O [Bortezomib] + O=C(O)[C@@H]1[O][Sb](=[O])([O][Sb]2(=[O])[O][C@H]([C@H](O)CO)[C@H](O)[C@H](C(=O)O)[O]2)[O][C@H]([C@H](O)CO)[C@@H]1O [stibogluconate] (first compound 0.001 µM, partner dose 2 µM) | 97 | 97 | 89.3 | 94.9 | 99.6 | 96 | 104 | 104
16 | Cc1cn(-c2cc(NC(=O)c3ccc(C)c(Nc4nccc(-c5cccnc5)n4)c3)cc(C(F)(F)F)c2)cn1 [nilotinib] + CC(=O)O[C@@]12CO[C@@H]1C[C@H](O)[C@@]1(C)C(=O)[C@H](O)C3=C(C)[C@@H](OC(=O)[C@H](O)[C@@H](NC(=O)OC(C)(C)C)c4ccccc4)C[C@@](O)([C@@H](OC(=O)c4ccccc4)[C@H]21)C3(C)C [Docetaxel] (first compound 0.2 µM, partner dose 0.0001 µM) | 71.3 | 52.6 | 39 | 80.9 | 65.4 | 53 | 36.1 | 63.1
17 | Cc1cc(Nc2cc(N3CCN(C)CC3)nc(/C=C/c3ccccc3)n2)n[nH]1 + O=C(O)[C@@H]1[O][Sb](=[O])([O][Sb]2(=[O])[O][C@H]([C@H](O)CO)[C@H](O)[C@H](C(=O)O)[O]2)[O][C@H]([C@H](O)CO)[C@@H]1O [stibogluconate] (first compound 0.04 µM, partner dose 2 µM) | 91.1 | 99.4 | 103 | 89.9 | 89.3 | 99.5 | 107 | 93.4
18 | Cc1cc(Nc2cc(N3CCN(C)CC3)nc(/C=C/c3ccccc3)n2)n[nH]1 + Nc1ccn([C@@H]2O[C@H](CO)[C@@H](O)C2(F)F)c(=O)n1 [gemcitabine] (first compound 0.04 µM, partner dose 0.0004 µM) | 90.6 | 101 | 96.4 | 109 | 99 | 97.1 | 128 | 91
19 | Cc1cc(Nc2cc(N3CCN(C)CC3)nc(/C=C/c3ccccc3)n2)n[nH]1 + C#Cc1cccc(Nc2ncnc3cc(OCCOC)c(OCCOC)cc23)c1 [erlotinib] (first compound 0.04 µM, partner dose 0.8 µM) | 96.7 | 80.9 | 83.1 | 82.2 | 85 | 90 | 88.1 | 73.1
20 | COc1ccc(C2=N[C@@H](c3ccc(Cl)cc3)[C@@H](c3ccc(Cl)cc3)N2C(=O)N2CCNC(=O)C2)c(OC(C)C)c1 [Nutlin-3] + C#Cc1cccc(Nc2ncnc3cc(OCCOC)c(OCCOC)cc23)c1 [erlotinib] (first compound 0.1 µM, partner dose 0.8 µM) | 95.8 | 104 | 114 | 83.8 | 86.8 | 106 | 96.1 | 80.6
21 | CC(C)C[C@H](NC(=O)[C@H](Cc1ccccc1)NC(=O)c1cnccn1)B(O)O [Bortezomib] + O=C(O)c1ccc2c(c1)nc(Nc1cccc(Cl)c1)c1ccncc12 [CX4945] (first compound 0.001 µM, partner dose 0.4 µM) | 62.1 | 79.5 | 59.9 | 44.1 | 95.5 | 90.5 | 66.8 | 53.7
22 | CC(C)C[C@H](NC(=O)[C@H](Cc1ccccc1)NC(=O)c1cnccn1)B(O)O [Bortezomib] + Nc1ccn([C@@H]2O[C@H](CO)[C@@H](O)C2(F)F)c(=O)n1 [gemcitabine] (first compound 0.001 µM, partner dose 0.0004 µM) | 76.6 | 77.3 | 74.7 | 45.1 | 99.4 | 105 | 75.6 | 80.5
